The results in this text go back to patent US20250262222A1, “HETEROCYCLIC COMPOUNDS, COMPOSITIONS THEREOF, AND METHODS OF TREATMENT THEREWITH” (BeiGene Switzerland GmbH, priority 2022, published 2025).

Usually pIC50 stands for −log10 of the IC50, conventionally taken in molar units.

The target in assay [1] is GST-tagged GDP-loaded WT KRAS (amino acids 1-188) (Homo sapiens, UniProt P01116). Kind of assay: biochemical.
Assay [2] concerns the target GST-tagged GDP-loaded KRAS G12D (amino acids 1-188) (Homo sapiens, UniProt P01116, G12D). Put plainly: biochemical.

The structures appear in SMILES notation. pIC50: −log10 of the molar value.

Turning to `Nc1cc(Cl)c(C(F)(F)F)c(-c2nc3c4c(nc(OC[C@@]56CCCN5C[C@H](F)C6)nc4c2F)N2C[C@H]4CC[C@H](N4)C2CCO3)c1` (single isomer, unassigned) [Example 24], the figures for the negative logarithm of the IC50 (pIC50) in assay [1] and in assay [2] were 8.70 and 9.80, respectively.
The corresponding values for `Nc1cc(Cl)c(C(F)(F)F)c(-c2nc3c4c(nc(OC[C@@]56CCCN5C[C@H](F)C6)nc4c2F)N2C[C@H]4CC[C@H](N4)C2CCO3)c1` (single isomer, unassigned) [Example 25] are 7.17 and 8.36.
As for `Cc1nc(N)cc(-c2nc3c4c(nc(OCC56COC(C5)C6)nc4c2F)N2CC4CCC(N4)[C@H]2CCO3)c1C(F)(F)F` (stereo in doubt) [Example 42, 4-((6aR,7R,10S)-13-((2-oxabicyclo[2.1.1]hexan-4-yl)methoxy)-1-fluoro-5,6,6a,7,8,9,10,11-octahydro-4-oxa-3,11a,12,14,15-pentaaza-7,10-methanocyclohepta[4,5]cyclo-octa[1,2,3-de]naphthalen-2-yl)-6-methyl-5-(trifluoromethyl)pyridin-2-amine], the results for the negative logarithm of the IC50 (pIC50) in assay [1] and in assay [2] were < 6.00 and 8.09, respectively.
Taken in the same sequence, the figures for `Nc1cc(Cl)c(C(F)(F)F)c(-c2nc3c4c(nc(OC[C@@]56CCCN5C[C@H](F)C6)nc4c2F)N2CC4CCC(N4)C2CO3)c1` (stereo partly drawn) [Example 10, 3-chloro-5-(1-fluoro-12-(((2R,7aS)-2-fluorotetrahydro-1H-pyrrolizin-7a(5H)-yl)methoxy)-5a,6,7,8,9,10-hexahydro-5H-4-oxa-3,10a,11,13,14-pentaaza-6,9-methanonaphtho[1,8-ab]heptalen-2-yl)-4-(trifluoromethyl)aniline] were 8.09 and 9.05.
The corresponding values for `C#Cc1c(F)ccc2cc(O)cc(-c3nc4c5c(nc(OC[C@@]67CCCN6C[C@H](F)C7)nc5c3F)N3CC5CCC(N5)C3CO4)c12` (stereo partly drawn) [Example 11, 5-ethynyl-6-fluoro-4-(1-fluoro-12-(((2R,7aS)-2-fluorotetrahydro-1H-pyrrolizin-7a(5H)-yl)methoxy)-5a,6,7,8,9,10-hexahydro-5H-4-oxa-3,10a,11,13,14-pentaaza-6,9-methanonaphtho[1,8-ab]heptalen-2-yl)naphthalen-2-ol] are 9.02 and 9.80.
Taken in the same sequence, the figures for `Nc1cc(Cl)c(C(F)(F)F)c(-c2nc3c4c(nc(OC[C@@]56CCCN5C[C@H](F)C6)nc4c2F)N2CCNC[C@H]2CO3)c1` [Example 12, 3-chloro-5-((S)-1-fluoro-11-(((2R,7aS)-2-fluorotetrahydro-1H-pyrrolizin-7a(5H)-yl)methoxy)-5,5a,6,7,8,9-hexahydro-4-oxa-3,7,9a,10,12-pentaazabenzo[4,5]cyclohepta[1,2,3-de]naphthalen-2-yl)-4-(trifluoromethyl)aniline] were 7.66 and 8.55.
Turning to `Nc1cc(Cl)c(C(F)(F)F)c(-c2nc3c4c(nc(OC[C@@]56CCCN5C[C@H](F)C6)nc4c2F)N2CCNCC2CCO3)c1` (stereo partly drawn) [Example 13, 3-chloro-5-(1-fluoro-12-(((2R,7aS)-2-fluorotetrahydro-1H-pyrrolizin-7a(5H)-yl)methoxy)-6,6a,7,8,9,10-hexahydro-5H-4-oxa-3,8,10a,11,13-pentaazabenzo[4,5]cycloocta[1,2,3-de]naphthalen-2-yl)-4-(trifluoromethyl)aniline], the negative-log IC50 (pIC50) in assay [1] was 7.68; in assay [2], 7.23.
Take `Nc1cc(Cl)c(C(F)(F)F)c(-c2nc3c4c(nc(OC[C@@]56CCCN5C[C@H](F)C6)nc4c2F)N2C[C@H]4CC[C@H](N4)[C@H]2CO3)c1` [Example 17, 3-chloro-5-((5aS,6S,9R)-1-fluoro-12-(((2R,7aS)-2-fluorotetrahydro-1H-pyrrolizin-7a(5H)-yl)methoxy)-5a,6,7,8,9,10-hexahydro-5H-4-oxa-3,10a,11,13,14-pentaaza-6,9-methanonaphtho[1,8-ab]heptalen-2-yl)-4-(trifluoromethyl)aniline]: the negative-log IC50 (pIC50) is 8.77 in assay [1] and 9.77 in assay [2].
Take `Nc1cc(Cl)c(C(F)(F)F)c(-c2nc3c4c(nc(OCC56COC(C5)C6)nc4c2F)N2C[C@H]4CC[C@H](N4)C2CCO3)c1` (stereo partly drawn) [Example 23, 3-((7S,10R)-13-((2-oxabicyclo[2.1.1]hexan-4-yl)methoxy)-1-fluoro-5,6,6a,7,8,9,10,11-octahydro-4-oxa-3,11a,12,14,15-pentaaza-7,10-methanocyclohepta[4,5]cycloocta[1,2,3-de]naphthalen-2-yl)-5-chloro-4-(trifluoromethyl)aniline]: the pIC50 in assay [1] was 6.74; in assay [2], 9.28. Also, the “KRas WT selectivity” value in assay [2] (compared to dibasic G12D inhibitors (e.g., Example 17)) was “improved KRas WT selectivity”.
As to `Cc1cc(N)cc(-c2nc3c4c(nc(OCC5(C(F)F)COC5)nc4c2F)N2C[C@H]4CC[C@H](N4)[C@H]2CCO3)c1C(F)(F)F` [Example 26, 3-((6aR,7S,10R)-13-((3-(difluoromethyl)oxetan-3-yl)methoxy)-1-fluoro-5,6,6a,7,8,9,10,11-octahydro-4-oxa-3,11a,12,14,15-pentaaza-7,10-methanocyclohepta[4,5]cycloocta[1,2,3-de]naphthalen-2-yl)-5-methyl-4-(trifluoromethyl)aniline], the pIC50 in assay [1] was 6.57; in assay [2], 9.28.
Taken in the same sequence, the figures for `Cc1cc(N)cc(-c2nc3c4c(nc(OCC56COC(C5)C6)nc4c2F)N2C[C@H]4CC[C@H](N4)[C@H]2CCO3)c1C(F)(F)F` [Example 27, 3-((6aR,7S,10R)-13-((2-oxabicyclo[2.1.1]hexan-4-yl)methoxy)-1-fluoro-5,6,6a,7,8,9,10,11-octahydro-4-oxa-3,11a,12,14,15-pentaaza-7,10-methanocyclohepta[4,5]cyclo-octa[1,2,3-de]naphthalen-2-yl)-5-methyl-4-(trifluoromethyl)aniline] were 6.33 and 8.92.
Taken in the same sequence, the figures for `Cc1cc(N)cc(-c2nc3c4c(nc(OCC56COC(C)(C5)C6)nc4c2F)N2C[C@H]4CC[C@H](N4)[C@H]2CCO3)c1C(F)(F)F` [Example 28, 3-((6aR,7S,10R)-1-fluoro-13-((1-methyl-2-oxabicyclo[2.1.1]hexan-4-yl)methoxy)-5,6,6a,7,8,9,10,11-octahydro-4-oxa-3,11a,12,14,15-pentaaza-7,10-methanocyclohepta[4,5]cyclo-octa[1,2,3-de]naphthalen-2-yl)-5-methyl-4-(trifluoromethyl)aniline] were 6.42 and 8.96.
Taken in the same sequence, the figures for `Cc1cc(N)cc(-c2nc3c4c(nc(OCC56COC(C(F)F)(C5)C6)nc4c2F)N2C[C@H]4CC[C@H](N4)[C@H]2CCO3)c1C(F)(F)F` [Example 29, 3-((6aR,7S,10R)-13-((1-(difluoromethyl)-2-oxabicyclo[2.1.1]hexan-4-yl)methoxy)-1-fluoro-5,6,6a,7,8,9,10,11-octahydro-4-oxa-3,11a,12,14,15-pentaaza-7,10-methanocyclohepta[4,5]cyclo-octa[1,2,3-de]naphthalen-2-yl)-5-methyl-4-(trifluoromethyl)aniline] were 6.50 and 9.13.
Regarding `Cc1cc(N)cc(-c2nc3c4c(nc(OCC56COCC(F)(C5)C6)nc4c2F)N2C[C@H]4CC[C@H](N4)[C@H]2CCO3)c1C(F)(F)F` [Example 30, 3-((6aR,7S,10R)-1-fluoro-13-((5-fluoro-3-oxabicyclo[3.1.1]heptan-1-yl)methoxy)-5,6,6a,7,8,9,10,11-octahydro-4-oxa-3,11a,12,14,15-pentaaza-7,10-methanocyclohepta[4,5]cyclo-octa[1,2,3-de]naphthalen-2-yl)-5-methyl-4-(trifluoromethyl)aniline], the negative-log IC50 (pIC50) in assay [1] was 6.59; in assay [2], 8.92.
Taken in the same sequence, the figures for `Cc1c(F)c(N)cc(-c2nc3c4c(nc(OCC5(C(F)F)COC5)nc4c2F)N2C[C@H]4CC[C@H](N4)[C@H]2CCO3)c1C(F)(F)F` [Example 31, 5-((6aR,7S,10R)-13-((3-(difluoromethyl)oxetan-3-yl)methoxy)-1-fluoro-5,6,6a,7,8,9,10,11-octahydro-4-oxa-3,11a,12,14,15-pentaaza-7,10-methanocyclohepta[4,5]cyclo-octa[1,2,3-de]naphthalen-2-yl)-2-fluoro-3-methyl-4-(trifluoromethyl)aniline] were 6.44 and 9.04.
Taken in the same sequence, the figures for `Nc1cc(Cl)c(C(F)(F)F)c(-c2nc3c4c(nc(OCC5(C(F)F)COC5)nc4c2F)N2C[C@H]4CC[C@H](N4)[C@H]2CCO3)c1` [Example 32, 3-chloro-5-((6aR,7S,10R)-13-((3-(difluoromethyl)oxetan-3-yl)methoxy)-1-fluoro-5,6,6a,7,8,9,10,11-octahydro-4-oxa-3,11a,12,14,15-pentaaza-7,10-methanocyclohepta[4,5]cyclo-octa[1,2,3-de]naphthalen-2-yl)-4-(trifluoromethyl)aniline] were 6.94 and 9.64.
The corresponding values for `CCOC(=O)N1CC(C)(COc2nc3c4c(nc(-c5cc(N)cc(Cl)c5C(F)(F)F)c(F)c4n2)OCC[C@@H]2[C@@H]4CC[C@H](CN32)N4)C1` [Example 33, ethyl 3-((((6aR,7S,10R)-2-(5-amino-3-chloro-2-(trifluoromethyl)phenyl)-1-fluoro-5,6,6a,7,8,9,10,11-octahydro-4-oxa-3,11a,12,14,15-pentaaza-7,10-methanocyclohepta[4,5]cyclo-octa[1,2,3-de]naphthalen-13-yl)oxy)methyl)-3-methylazetidine-1-carboxylate] are 6.60 and 9.04.
On to `CC12CC(COc3nc4c5c(nc(-c6cc(N)cc(Cl)c6C(F)(F)F)c(F)c5n3)OCC[C@@H]3[C@@H]5CC[C@H](CN43)N5)(CO1)C2` [Example 34, 3-chloro-5-((6aR,7S,10R)-1-fluoro-13-((1-methyl-2-oxabicyclo[2.1.1]hexan-4-yl)methoxy)-5,6,6a,7,8,9,10,11-octahydro-4-oxa-3,11a,12,14,15-pentaaza-7,10-methanocyclohepta[4,5]cyclo-octa[1,2,3-de]naphthalen-2-yl)-4-(trifluoromethyl)aniline], for which the pIC50 is 6.83 in assay [1] and 9.44 in assay [2].
